# Laboratory results: the supplement of paper PMC12217912
# The other results are listed elsewhere or left out. Sequences were assembled here from the parent chain. Inactive controls read about 0.05.
# B1: TEV protease; numbered along this chain (parent)
# chain: MGESLFKGPRDYNPISSSICHLTNESDGHTTSLYGIGFGPFIITNKHLFRRNNGTLVVQSLHGVFKVKDTTTLQQHLVDGRDMIIIRMPKDFPPFPQKLKFREPQREERICLVTTNFQTKSMSSMVSDTSCTFPSGDGIFWKHWIQTKDGQCGSPLVSTRDGFIVGIHSASNFTNTNNYFTSVPKNFMELLTNQEAQQWVSGWRLNADSVLWGGHKVFMVKPEEPFQPVKEATQL
# Variants of: B1
# Assay: raw area under fraction-flipped curve 0-4 h after induction (AUC4h, not background-subtracted), DNA-recorder readout of cleavage of the substrate (dimensionless); higher = more cleavage of the substrate by the protease variant
# Conditions: temperature: 34 °C; time window: 0-4 h after rhamnose induction
# Procedure: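 In vivo DNA recorder in E. coli TOP10(DE3) ΔrhaA at 34 °C. Each TEVp single-site mutant (parent TEVp 0) is paired with a single-site variant of the 7-mer TEVs (canonical ENLYFQ|S). The substrate sits between flexible linkers in a Bxb1-sfGFP-TEVs-SsrA fusion, so cleavage stabilises Bxb1 and speeds flipping of a recombination array, read by NGS. The value is the raw area under the fraction-flipped curve over 0-4 h after rhamnose induction (AUC4h), with ≥20 reads per time point. It is not background-subtracted; inactive controls average about 0.047.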
# 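Further: Bxb1 expression induced with 0.2% (w/v) L-rhamnose at OD600 near 0.5, cultures sampled hourly, flipped fraction per protease–substrate barcode pair counted by paired-end Illumina sequencing.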
Variant,area with substrate EALYFQS,area with substrate ECLYFQS,area with substrate EDLYFQS,area with substrate EELYFQS,area with substrate EFLYFQS,area with substrate EGLYFQS,area with substrate EILYFQS,area with substrate EKLYFQS,area with substrate EMLYFQS,area with substrate EPLYFQS,area with substrate EQLYFQS,area with substrate ERLYFQS,area with substrate ESLYFQS,area with substrate ETLYFQS,area with substrate EVLYFQS,area with substrate EWLYFQS,area with substrate ELLYFQS,area with substrate EHLYFQS,area with substrate EYLYFQS
F92P,0.0518,0.068,0.0612,0.0699,0.0596,0.0531,0.0554,0.071,0.0547,0.0585,0.0641,0.0587,0.0667,0.0572,0.0527,0.0603,,,
L61S,0.106,0.102,0.146,,,0.1,,,,,,,0.0943,,,0.0793,0.0953,,
Q105H,0.108,0.14,,0.111,,0.062,0.118,0.118,0.0911,0.104,,0.105,0.0959,0.132,0.0957,,0.0849,0.0864,
K98Y,0.113,0.097,,,,0.111,0.108,,0.109,0.129,0.133,0.0988,0.109,0.123,0.103,0.112,0.109,0.112,0.142
I85G,0.0583,0.0612,0.0471,0.057,,0.0458,0.06,0.0485,0.0478,0.0544,,,0.058,,,,0.0508,0.0524,0.0574
L112P,0.0499,0.0565,0.0548,,,,,0.0563,0.0458,,0.0669,,0.0557,0.052,0.0617,0.0458,0.068,0.0404,
M83A,0.0849,0.0833,0.0932,,,0.0683,0.0772,,0.0891,0.086,0.0945,0.0766,0.0801,0.063,0.0814,0.0801,,0.0956,
M83Q,0.0794,0.0554,0.0659,0.04,0.068,,,,0.0713,0.0697,0.0772,0.0695,0.0648,0.0627,0.0732,,,,0.0583
M83P,0.0637,0.0582,,0.06,,,,0.0563,0.0633,0.0584,0.0495,,0.0538,,0.0526,0.0541,0.0496,,
M83S,0.0709,,0.0623,0.0714,0.0617,0.048,,0.0583,0.0357,0.0715,0.0805,0.0764,,,0.0593,,,0.0719,
C111F,0.143,0.0968,0.132,0.117,,0.0815,0.0656,0.118,0.112,,0.101,0.118,0.109,0.113,0.0976,,0.0861,,0.101
C111V,0.139,0.0984,,0.127,0.107,0.0983,0.101,,0.0956,0.121,0.109,0.074,0.0989,0.122,0.0979,,0.105,0.152,0.112
V78M,0.111,0.106,0.157,,,0.0883,,0.0816,0.122,,0.135,0.106,0.11,,0.0854,0.0782,0.0709,0.0805,
V78K,0.0503,0.0514,0.0743,,,,0.0554,0.0621,0.0495,0.058,0.0599,0.0422,0.0601,0.0628,0.0558,0.0735,,0.0745,
V78T,0.155,0.0792,0.113,,0.123,0.0895,0.0859,0.097,0.0796,0.0946,0.111,0.089,0.0858,,,,0.0525,0.0861,
I86Y,0.0468,0.0851,,0.0533,,0.05,,0.0624,0.0518,,0.0651,,0.0613,0.0824,0.0385,,,,0.0635
T70M,0.0574,0.116,0.109,0.0985,,,,,,,,,0.0807,,0.0849,,0.0643,,0.122
T72Y,0.0946,0.0829,0.102,0.102,,,0.0796,,0.0929,,0.105,,0.0858,,0.106,,0.0818,0.104,0.106
K66C,0.125,0.105,,,0.0749,,,,0.126,,0.153,0.0993,0.118,,0.107,0.104,0.0887,0.13,0.129
P96G,0.124,0.0883,0.153,,,,0.0988,0.131,0.126,,,,0.0858,,,,0.0847,0.106,
D91V,0.112,0.0932,0.081,,0.0914,,0.0901,,,0.0858,,0.0872,0.105,,0.0798,0.067,,0.107,
T55K,0.117,0.0944,0.12,0.184,0.105,0.107,0.0941,0.0987,0.107,0.14,0.122,0.097,0.109,,0.0725,0.0932,,0.147,0.102
R87P,0.0608,0.0496,,,,,0.0565,,0.0546,,,0.0587,0.0624,,,,0.0582,,
K90C,0.127,0.121,,0.114,,0.103,0.0873,,,0.102,,0.0989,0.112,,0.0799,0.0877,0.107,0.0814,
K90Q,0.12,0.102,0.117,0.142,0.108,,0.0814,0.119,,,0.13,0.0966,0.108,,,0.0718,,,
T114C,0.103,0.079,,0.106,,0.084,0.0949,,0.103,,,,,0.117,0.0729,,0.0584,0.0907,
I110C,0.138,0.101,0.115,0.102,,0.0894,0.117,0.119,0.103,0.123,0.0827,0.12,0.0996,0.124,,0.0976,0.103,,0.125
M88S,0.127,,,,,0.0822,0.0722,0.0916,,,,0.0872,0.0655,,,,0.0455,0.0449,0.0995
